This is one part of the list.
tested on: PF3D7_0420300 AP2 domain 1 (GST-tagged); test: gcPBM binding intensity (ln(normalized median fluorescence intensity)); higher = stronger DNA binding
In short: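 In this array assay, P. falciparum DNA-binding domains with a GST tag, expressed in E. coli, were applied for 1 h to primer-extended double-stranded 36-bp intergenic genomic probes and negative controls on an Agilent 4 × 180k array. Bound protein was visualised with Alexa488 anti-GST antibody at 488 nm. Binding intensity is the highest Masliner-normalised natural-log median intensity across replicate spots of either probe orientation.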

Row | Sequence | gcPBM binding intensity (ln)
1 | ATAAACAAAAAAAAAAAATATATCAATATATATATA [CACACA_negctrl_site299] | 9.12
2 | GAATTTCAACAAAGTAGTACATTTTATAGTAATTGG [XGTACX_site2319] | 9.07
3 | ATAAATATGTTCTGCACACAAATAAGTGTTTGAAGT [CACACA_site3892] | 9.39
4 | TAATGGAATAAAAATTGTACATATTTTTTTTTTTTT [XGTACX_site7669] | 9.04
5 | AACTCACGAGGACACACACACATATATATATATATA [CACACA_site4711] | 9.87
6 | TATAATATATCTGTAACACACAAAAGTTATATACTT [CACACA_site5578] | 9.29
7 | TTTTTTTCTCTCTCTACACACAAGGTTTAATTTAAA [CACACA_site1690] | 9.55
8 | ACATACATACATACATACATACATACATACATACAT [XGTACX_negctrl_site315] | 9.02
9 | TCATAGGGGTAGAAGGTGCAATAAAAAAGAAGAAAA | 9.19
10 | AATGTGTAGGTAAGATAATTTTTGTTTTTTTATTTG [CACACA_negctrl_site424] | 9.46
11 | ATATTTATAATATAGAGTACTTACTAAGTTATGGGT [XGTACX_site5405] | 9.23
12 | TTAAACTTGAAACACACACACACACCCATATAAAAA [CACACA_site758] | 10.1
13 | TTTTTATATATATGTATAAATATTTTTTCTATTTAT [XGTACX_negctrl_site606] | 9.1
14 | AAATTTTCTTAAGGTTGTACTTTTTGAAAATAATCT [XGTACX_site4894] | 8.98
15 | TGTAGTCTGGAGAAACGTACATAGTATCTGGTAGCT [XGTACX_site2538] | 9.18
16 | AAAAAAAAAAAAAAAAGTACAAAAATATATATGCAT [XGTACX_site8392] | 9.34
17 | TATGCACAGAAACACACACACACAACCAAAAAATAA [CACACA_site5425] | 10.2
18 | TTTTTATTTATATGTATACACACTTTAATTAAAAGT [CACACA_site2525] | 9.31
19 | TGTTATATATAAATTTGTACACATAAATATTTTTAC [XGTACX_site5873] | 9.25

Row | Sequence | gcPBM binding intensity (ln)
20 | AATAAAAAAAAATGCACACATATATATATATATATA [CACACA_site2421] | 9.26
21 | CAGAATATATTCTATACATGCAATAGGAAATGTAGC [TGCATGCA_site110] | 9.54
22 | ATTGCGTGATAATAATGTACAAAAAGTAATTTATAT [XGTACX_site8339] | 9.2
23 | AATATATAATTTTTAACACACAAAAAAAAAAAAAAT [CACACA_site3581] | 9.64
24 | AAAAAAAAAAAAAAAACACACACATATAATATATTT [CACACA_site8369] | 9.74
25 | TCATTCTAAATATAAACACACATAAATATATACATT [CACACA_site3354] | 9.54
26 | GGTACGTATTTCAATGCATGTCCATGTACATATAAA [TGCATGCA_site208] | 9.3
27 | CATACGTTCTAATATATACACACCTGGTATTAATTA [CACACA_site2221] | 9.44
28 | CTATAATGTTTCTTTCAACACACAAAAAATGAACAC [CACACA_site8438] | 9.56
29 | TAAAAAATTTTCGCGTGTACGCAAGAAAAAAAAAAT [XGTACX_site3058] | 9.15
30 | TTTTTGCCATATTACACACACACATGGAAACCCCCT [CACACA_site4994] | 10.1
31 | TATATATTTAGTTAGTGTACAAGTTATTTAGTAGTT [XGTACX_site5133] | 9.22
32 | AAAAAAATAATGTATATATAAATTTATTTACATATG [GTGCAC_negctrl_site107] | 9.07
33 | TCTTTTAACAAATAATAAGCTAATTTATATTATTAT [GTGCAC_negctrl_site655] | 8.9
34 | TAAAAAATAAGATATACACACATATATTTATTTATA [CACACA_site7158] | 9.33
35 | CAAATAAATTAAAGGTGTACTTTTATAGTTACGACA [XGTACX_site3926] | 9.13
36 | CATATTTTCTTGTGTACACATTTATTTTATACTATA [CACACA_site6032] | 9.74
37 | TCAATAAGATTATAAAGTACTTTTGAAGATATTATA [XGTACX_site7489] | 8.87
38 | TTTCTTATTTTTTTCACACACTAAACATTTCAAATG [CACACA_site5259] | 9.35

Row | Sequence | gcPBM binding intensity (ln)
39 | AAATAAATAAATAAATGTACACATATATATATATAT [XGTACX_site7787] | 9.27
40 | AAATATTTAAATATTATGTATGATTATATATATATA [CACACA_negctrl_site590] | 9.15
41 | AAAGAGAACATAAGTACACACATGTTCTTTTAGTAA [CACACA_site2824] | 9.31
42 | AAAGTAAAAACACATACATGCATATACACATATAAC [TGCATGCA_site341] | 9.66
43 | AAAAAAAAAAAAAAAACACACAAAAGCAAGAAAAAC [CACACA_site3198] | 10.1
44 | ATAAATATGTATTGCTGTACATATATATAAATTATC [XGTACX_site8411] | 9.12
45 | AATAGGAAAACCTATACACACTTTAAAAAAAATATA [CACACA_site4977] | 9.3
46 | TACATATATGATAAAAGTACATATAAATATACATAA [XGTACX_site3804] | 9.37
47 | GAAATAAAAGATGGTTGTACACCGTTTTCTCATATA [XGTACX_site5368] | 9.21
48 | TATATGAATAAACATTGTACGTAAATATTAACTATC [XGTACX_site543] | 9.41
49 | AAGATGATAAAATATGTACACACAGTTTATACATTT [CACACA_site9341] | 9.38
50 | TTATATATTAAGAAATGTACGAAAAAAAAAATTATA [XGTACX_site3893] | 9.2
51 | CGCATAAAGACAAGAACACACATATAGATTGTAGTA [CACACA_site3693] | 9.32
52 | AAAAAAAATTATATATGTACTTATTAATCCTTTTAT [XGTACX_site1387] | 9.04
53 | AATTATTTATTGAGAGTGCAACAAATTATTTCAAAT [GTGCAC_site9461] | 9.11
54 | ACATTTTAAATACGATGTACTTGAGTTTTTTTTAAA [XGTACX_site5833] | 9.11
55 | TTTTTTTGCATGAGCAATAAAAAAGGCTTGTTCAAA [CACACA_negctrl_site1615] | 8.45
56 | GTAGATATTTATTGAGTGCATGTTATAAAGGGAAAA [GTGCAC_site9481] | 9.22

From the supplement of paper PMC11417369
